From paper PMC6828672
These are yes or no findings as the source states them, for the method shown. Binding seen in cells or lysates may run through a third protein. Some entries that bind do so weakly or less than the wild type. For some of these results: Tags and fused reporters may be left off the sequences shown. Blank lines part the entries; values can stand above or below the molecule they belong to.

Sequences of proteins named here, by UniProt entry; tags and fusion partners are left off.
UniProt Q13547: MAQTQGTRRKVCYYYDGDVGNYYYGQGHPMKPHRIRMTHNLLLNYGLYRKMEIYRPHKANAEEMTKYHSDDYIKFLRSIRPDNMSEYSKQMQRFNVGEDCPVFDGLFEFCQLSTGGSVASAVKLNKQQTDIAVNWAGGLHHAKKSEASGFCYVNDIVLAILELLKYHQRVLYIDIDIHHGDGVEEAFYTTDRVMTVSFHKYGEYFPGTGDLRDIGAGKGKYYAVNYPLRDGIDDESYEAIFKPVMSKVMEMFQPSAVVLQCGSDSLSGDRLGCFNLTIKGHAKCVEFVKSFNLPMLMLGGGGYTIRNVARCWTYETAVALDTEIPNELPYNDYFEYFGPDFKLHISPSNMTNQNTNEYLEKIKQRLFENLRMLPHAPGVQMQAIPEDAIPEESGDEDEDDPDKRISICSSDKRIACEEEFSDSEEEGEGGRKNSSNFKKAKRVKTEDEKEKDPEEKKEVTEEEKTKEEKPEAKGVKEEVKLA

How the values were obtained:
[1] = target: T1, KCTD15 as expressed for the co-immunoprecipitation with Cul3 and HDAC1 (human) (UniProt Q96SI1); assay: co-IP; lysates of co-transfected HEK293T cells (50 mM Tris-HCl pH 7.6, 1% deoxycholate, 150 mM NaCl, 1% NP40, 5 mM EDTA, 100 mM NaF) incubated with anti-Flag M2 agarose beads 2 h at 4 °C; Western blot
T1 sequence: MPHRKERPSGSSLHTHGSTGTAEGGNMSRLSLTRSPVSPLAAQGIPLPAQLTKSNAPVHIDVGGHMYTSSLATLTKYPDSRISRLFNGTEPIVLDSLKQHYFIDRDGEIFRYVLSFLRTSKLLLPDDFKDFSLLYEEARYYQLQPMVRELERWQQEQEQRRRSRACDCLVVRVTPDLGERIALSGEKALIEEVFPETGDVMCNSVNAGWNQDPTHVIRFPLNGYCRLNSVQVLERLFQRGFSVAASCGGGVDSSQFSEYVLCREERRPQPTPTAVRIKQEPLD

[2] = target: T2, Flag-tagged KCASH2 (human) (UniProt Q4G0X4); assay: as above
T2 sequence: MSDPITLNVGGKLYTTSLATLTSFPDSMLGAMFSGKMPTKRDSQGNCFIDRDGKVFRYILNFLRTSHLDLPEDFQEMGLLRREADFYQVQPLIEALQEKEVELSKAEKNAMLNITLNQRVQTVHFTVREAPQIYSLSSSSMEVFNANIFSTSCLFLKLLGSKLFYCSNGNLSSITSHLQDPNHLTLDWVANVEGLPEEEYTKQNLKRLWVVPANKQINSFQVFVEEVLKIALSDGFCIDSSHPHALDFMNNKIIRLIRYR

[3] = target: T3, KCASH3-Flag (human) (UniProt Q8NC69); assay: as above
T3 sequence: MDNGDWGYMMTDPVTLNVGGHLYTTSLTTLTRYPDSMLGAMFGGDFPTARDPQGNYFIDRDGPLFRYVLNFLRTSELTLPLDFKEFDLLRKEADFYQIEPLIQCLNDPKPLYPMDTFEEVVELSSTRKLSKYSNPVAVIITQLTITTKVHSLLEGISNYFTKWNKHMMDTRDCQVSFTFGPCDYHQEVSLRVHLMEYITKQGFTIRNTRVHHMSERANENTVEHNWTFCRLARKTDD

[4] = target: T4, BTB-KCASH2-Flag (human) (UniProt Q4G0X4); assay: as above
T4 sequence: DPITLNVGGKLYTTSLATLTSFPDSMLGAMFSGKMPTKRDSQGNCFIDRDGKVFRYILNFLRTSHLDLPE

[5] = target: HA-tagged KCTD15, full length (human) (UniProt Q96SI1); assay: as above
[6] = target: T5, GST-KCASH2 (human) (UniProt Q4G0X4); assay: pull-down; purified GST-KCASH2 or GST on glutathione-Sepharose 4B, incubated with in vitro translated KCTD15; 20 mM Hepes pH 7.9, 150 mM NaCl, 0.5 mM EDTA, 10% glycerol, 0.1% Tween 20, 4° for 2 h; Western blot with anti-KCTD15; only the target purified
T5 sequence: T2 sequence

[7] = target: T6, KCASH1-Flag (human), Q693B1; assay: co-IP; lysates of co-transfected HEK293T cells (50 mM Tris-HCl pH 7.6, 1% deoxycholate, 150 mM NaCl, 1% NP40, 5 mM EDTA, 100 mM NaF) incubated with anti-Flag M2 agarose beads 2 h at 4 °C; Western blot; settings: remark: other sources report otherwise
T6 chain: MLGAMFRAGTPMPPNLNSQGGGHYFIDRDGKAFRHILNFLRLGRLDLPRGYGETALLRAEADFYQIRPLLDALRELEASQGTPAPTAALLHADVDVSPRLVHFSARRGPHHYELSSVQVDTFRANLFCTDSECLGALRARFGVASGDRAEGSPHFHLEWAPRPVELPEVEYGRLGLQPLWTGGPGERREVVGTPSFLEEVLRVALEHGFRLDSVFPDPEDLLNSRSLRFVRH

binding [1]: no binding
Molecule: HDAC1 (from UniProt Q13547 1-482) (enzyme)

binding [2]: binds
binding [3]: no binding
binding [4]: binds
binding [5]: binds
B1: HA-tagged KCTD15, full length (protein, UniProt Q96SI1 1-283)
chain: T1 sequence

binding [6]: binds
B2: in vitro translated (IVT) KCTD15 (protein, UniProt Q96SI1 1-283)
chain: T1 sequence
modifications: biotin on lysines (Transcent Biotin-Lysyl-tRNA in the translation mix)

binding [7]: no binding
B3: HA-tagged KCTD15, full length, Q96SI1 1-283 (protein)
chain: T1 sequence
